# Data as given in PubChem BioAssay AID1347073 (National Center for Advancing Translational Sciences (NCATS), 2019).
# The campaign covered roughly 45,000 compounds. About 200 (0.44%) were called active. About 7% were inconclusive and are not listed. Calls come from the whole dose curve; as a rule, active = well fitted activation curve with a large enough effect; inconclusive = small, poorly fitted or top-dose-only effect; inactive = no such curve, though single readings can be large or run the other way. Some of the results follow.
# Assay: qHTS of TDP-43 Inhibitors: NCGC Sytravon Library Screen; note: nearly all actives have a fitted effect of over 55% in size; for growth rescue (activation): 0% is about no effect
# Details: yeast TDP-43 toxicity rescue, BacTiter-Glo growth, 24 h; series mostly up to 46.1 µM; growth rescue (activation): at the top concentration
# How it was run: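 TDP-43-expressing yeast, pregrown in raffinose, seeded at OD600 0.02 in galactose medium with compound for 24 hr at 30 deg C. Growth read by BacTiter-Glo luminescence, so rescue of toxicity appears as activation.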
# Potency is the fitted concentration of half-maximal effect.
Structure (SMILES),growth rescue (activation),Potency
CCOc1ccc(CN(C)C(=O)CNC(=O)C2CCCCC2)cc1,inactive: -4.38%,
O=C1CCCN1C(=O)CSc1ncnc2sccc12,inactive: 25.6%,
O=C(Nc1ccc(Oc2ccccc2)cc1)c1csc([C@@H]2O[C@H](CO)[C@H](O)[C@H](O)[C@H]2O)n1,inactive: 6.69%,
O=C(NCc1ccc(F)cc1)C1CCN(S(=O)(=O)c2cccc3nonc23)CC1,inactive: 7.77%,
COC(=O)c1ccccc1NC(=O)CCCn1nc([N+](=O)[O-])cc1C,inactive: 11.7%,
O=C(O)CC1(CC(=O)N2CCC(C(=O)O)CC2)CCCC1,inactive: 12.1%,
CC12CCC(C(=O)Nc3nc4ccccc4s3)(OC1=O)C2(C)C (configuration not stated),inactive: 11.5%,
CC(C)(C)c1ccc(Oc2coc3cc(OCC(=O)O)ccc3c2=O)cc1,inactive: 13.7%,
COc1cc(CC(=O)OCC(=O)Nc2cccc([N+](=O)[O-])c2)cc(OC)c1OC,inactive: 9.63%,
O=C(c1ccc(S(=O)(=O)N2CCCC2)cc1)N1CCN(c2cccc(Cl)c2)CC1,inactive: 37.4%,
COC(=O)c1cc(-c2ccc(F)cc2)n(-c2ccccc2)n1,inactive: 29.6%,
O=C(O)c1cc(N2C(=O)C3CCCCC3C2=O)ccc1NCc1cccnc1 (configuration not stated),inactive: -46.6%,
CCCCN1C(=O)c2ccc(C(=O)Nc3ccc(S(=O)(=O)N(C)C)cc3)cc2C1=O,inactive: 13.3%,
O=S(=O)(c1ccc2ccccc2c1)N1CCN(C(=S)Nc2ccc(F)cc2)CC1,inactive: 19.2%,
COCCN(Cc1cc2cc(C)ccc2n2nnnc12)C(=S)Nc1cccc(C)c1,inactive: -1.02%,
Cc1cccc(OCC(=O)NCC(=O)N/N=C/c2cccnc2)c1,inactive: 0.606%,
CC(=O)c1ccc(NC(=O)C2CCCN(S(=O)(=O)c3cccc4nonc34)C2)cc1 (configuration not stated),inactive: -2.08%,
C=CCN(CC=C)c1ccc(N2C(=O)C3CCCCC3C2=O)cc1[N+](=O)[O-] (configuration not stated),inactive: 28.7%,
COc1ccc(NC(=O)CCN2C(=O)c3cccc([N+](=O)[O-])c3C2=O)cc1,inactive: 5.22%,
CCCCC(=O)NNC(=O)N1c2ccccc2Sc2ccccc21,inactive: 16.7%,
COc1ccccc1-c1cnc(C(O)c2ccc(CN3CCCCC3)cc2)[nH]1 (configuration not stated),inactive: -9.77%,
O=C(NCc1ccc2c(c1)OCO2)C1CCN(S(=O)(=O)c2cccc3nsnc23)CC1,inactive: 14%,
Cc1ccc(NS(=O)(=O)c2ccc3c(c2)oc(=O)n3C)c(C)c1,inactive: 1.6%,

Structure (SMILES),growth rescue (activation),Potency
CN(C)C1CCN(C(=O)c2cccc(OC3CCN(S(=O)(=O)N(C)C)CC3)c2)C1 (configuration not stated),inactive: 18.8%,
CN(C)c1ccc(Nc2nc(N)c3ccccc3n2)cc1,inactive: -75.7%,
CC(=O)Nc1ccc(NC(=S)NC(=O)c2cc3ccccc3o2)cc1,inactive: 12.8%,
NC1=NC(c2cccc(Cl)c2)n2c(nc3ccccc32)N1 (configuration not stated),inactive: 3.26%,
COc1ccc2c(-c3ccccc3)cc(N3CCOCC3)nc2c1,inactive: -13.7%,
CC(=O)Nc1ccc(NC(=O)COC(=O)c2ccco2)cc1,inactive: 8.46%,
CC(=O)Nc1ccc(Nc2cc(N(C)C)c3nonc3c2[N+](=O)[O-])cc1,inactive: 8.86%,
COCCOC(=O)C1=C(C)NC(C)=C(C(=O)OCCOC)C1/C=C/c1ccccc1OC,inactive: 15.8%,
O=S(=O)(NCc1cccnc1)c1ccc2ccccc2c1,inactive: -9.89%,
COc1cccc(C(=O)OCC(=O)c2c[nH]c3ccccc23)c1O,inactive: 19%,
Cc1[nH]c(SCC(=O)Nc2cc(C(N)=O)cc(C(N)=O)c2)nc1Cc1ccccc1,inactive: -1.33%,
O=C(/C=C/c1ccc([N+](=O)[O-])cc1)NCc1ccco1,inactive: 4.27%,
Nc1ncn(-c2ncc(C(F)(F)F)cc2Cl)n1,inactive: -16.4%,
COCCn1c(-c2ccc(OC(F)(F)C(F)C(F)(F)F)cc2)nc2c1c(=O)[nH]c(=O)n2CC(C)C (configuration not stated),inactive: 13.7%,
Cc1ccc(CSc2nnc(-c3ccco3)o2)cc1,,active: 12.6 µM
O=C(c1ccco1)N1CCN(Cc2nnc(-c3ccccc3F)o2)CC1,inactive: -8.55%,
O=C(Nc1ccc(S(=O)(=O)N2CCOCC2)cc1)C1CC1,inactive: 8.27%,
Cc1ccc(-c2nc(CN(C)Cc3ccc4nccnc4c3)c(C)o2)s1,inactive: 14.9%,
Cc1ccccc1-n1c(C)nnc1SCC(=O)NNC(=O)c1ccccc1,inactive: 5.23%,
O=C(c1ccccc1)c1c[nH]c(C(=O)C(Cl)(Cl)Cl)c1,inactive: 9.46%,
COc1ccc(-c2nnc(SCC(=O)NC(C)c3ccccc3)o2)cc1OC (configuration not stated),inactive: 13.4%,
Cc1c(CCOC(=O)c2ccc([N+](=O)[O-])cc2)sc[n+]1CC(=O)c1ccccc1,inactive: 4.24%,
Cc1cc(F)ccc1S(=O)(=O)Nc1ccc(O)c(Sc2ncn[nH]2)c1,inactive: 3.42%,

Structure (SMILES),growth rescue (activation),Potency
CC(=O)c1cccc(NC(=O)CCCNC(=O)c2ccc(Cl)cc2)c1,inactive: 6.6%,
COc1ccccc1CC(=O)NC1CCC(C)CC1 (configuration not stated),inactive: -0.0925%,
COc1cc(C(c2c(C)[nH][nH]c2=O)c2c(C)[nH][nH]c2=O)ccc1OC(=O)c1cccc([N+](=O)[O-])c1,inactive: 4.15%,
O=C(OCC(=O)N1CCCC1)c1cc(F)c(F)cc1Cl,inactive: 3.82%,
C/C(=N\NC(=S)Nc1ccccc1C)C1Cc2ccccc2C(=O)O1 (configuration not stated),inactive: 2.21%,
CC(=O)C1=C(c2ccccc2)NC(=S)NC1c1cc(Cl)c(OC(C)C)c(Cl)c1 (configuration not stated),inactive: -13.7%,
CCc1nc2ccc(C(=O)N(C)CCCN(C)C)cn2c1N(CC)CCOC,inactive: 12.4%,
Cc1cc(C)nc(N2CCCC(C(=O)NC3CC3)C2)n1 (configuration not stated),inactive: 0.966%,
CC(C)COc1ccc(C(=O)OCCN2CCCCC2)cc1,inactive: 6.57%,
COc1ccc(S(=O)(=O)Nc2ccc(S(=O)(=O)Nc3nccs3)cc2)cc1,inactive: -6.77%,
CSCCC(NS(=O)(=O)c1ccc(C)c(C(=O)O)c1)C(=O)O (configuration not stated),inactive: -3.71%,
Cn1c(=O)c2c(nc(NCc3ccco3)n2Cc2ccccc2Cl)n(C)c1=O,inactive: 13.9%,
Cc1noc(C)c1S(=O)(=O)N1CCN(S(=O)(=O)c2ccccc2C#N)CC1,inactive: 7.32%,
Cc1ccn(S(=O)(=O)c2ccc(N3CCCC3=O)cc2)n1,inactive: -3.79%,
Cc1cc(NCCc2ccc(Cl)cc2)n2ncnc2n1,inactive: 5.04%,
Cc1ccc(N2CC(C(=O)Nc3ccc(S(=O)(=O)N4CCCC4)cc3)CC2=O)cc1C (configuration not stated),inactive: 0.594%,
CC12CCC(C(=O)O)(c3nc4cc([N+](=O)[O-])ccc4nc31)C2(C)C (configuration not stated),inactive: 29.4%,
CC(C)NC(=S)NCc1cccnc1,inactive: 10.2%,
O=C(CCN1C(=O)/C(=C\c2ccccc2)SC1=S)Nc1ccc(C(=O)O)cc1,inactive: 10.9%,
NS(=O)(=O)c1ccc(CCNC(=O)COC(=O)CC(c2ccccc2)c2ccccc2)cc1,inactive: -5.11%,
CC(C)C(=O)N1CCN(c2ccc(NC(=O)c3ccco3)cc2Cl)CC1,inactive: 5.11%,
